Data: a compilation of properties of binary mixtures (doi:10.1016/j.molliq.2010.01.009)
The densities may have been worked out from excess volumes.

Test: xn = mol fraction of the nth substance listed
Settings: 101 kPa

COCCOCCOCCOC + CCCC[n+]1ccn(C)c1.F[P-](F)(F)(F)(F)F
mass density [kg/m3]
Settings	298.15 K	308.15 K	318.15 K
x1 = 0.0126	1363.9	1355.4	1347
x1 = 0.0472	–	–	1336.4
x1 = 0.1117	1333.8	1325.3	1316.9
x1 = 0.21	1303.5	–	1286.7
x1 = 0.2935	1276.7	1268.4	1260
x1 = 0.3944	1242.8	1234.5	1226
x1 = 0.5167	1199	1190.5	1181.8
x1 = 0.6161	–	1152.1	1143.3
x1 = 0.7107	1122	1113.1	1104.2
x1 = 0.7954	1084.8	–	1066.7
x1 = 0.9017	1033.9	–	1015.4
x1 = 0.9547	–	997	987.6
x1 = 0.9742	995.8	986.3	–
x1 = 1	–	–	962.3
x2 = 0.0093	986.6	977.1	–

COCCOCCOCCOCCOC + CCCC[n+]1ccn(C)c1.F[P-](F)(F)(F)(F)F
mass density [kg/m3]
Settings	298.15 K	308.15 K	318.15 K
x1 = 0.0116	1363.7	1355.2	1346.7
x1 = 0.0395	1354	1345.5	1337
x1 = 0.0915	1336.5	1328	–
x1 = 0.1755	1309.1	1300.7	1292.2
x1 = 0.251	1284.4	1275.9	1267.5
x1 = 0.3493	1251.4	1243	–
x1 = 0.4587	1213.6	–	1196.5
x1 = 0.5624	1177	1168.3	1159.6
x1 = 0.6647	1140.4	1131.6	1122.8
x1 = 0.7563	1106.5	1097.7	1088.8
x1 = 0.8794	1058.5	1049.5	–
x1 = 0.9414	–	1022.9	1013.7
x1 = 0.9721	1018.1	–	–
x1 = 1	1004.8	–	986.2
x2 = 0.0128	1010.9	1001.7	992.4

CCCC[n+]1ccn(C)c1.F[P-](F)(F)(F)(F)F + COCCOCCO
Settings	mass density [kg/m3]
298.15 K, x2 = 0	1367.9

CCCC[n+]1ccn(C)c1.F[P-](F)(F)(F)(F)F + COCCOCCOCCO
x2 = 0
Settings	mass density [kg/m3]
298.15 K	1367.9
318.15 K	1350.9

CCCC[n+]1ccn(C)c1.F[P-](F)(F)(F)(F)F + COCCOCCOCCOC
x2 = 0
Settings	mass density [kg/m3]
298.15 K	1367.9
308.15 K	1359.3
318.15 K	1350.9

CCCC[n+]1ccn(C)c1.F[P-](F)(F)(F)(F)F + COCCOCCOCCOCCOC
x2 = 0
Settings	mass density [kg/m3]
298.15 K	1367.9
308.15 K	1359.3
318.15 K	1350.9
